Measured values published in PubChem BioAssay AID686978 (National Center for Advancing Translational Sciences (NCATS), 2013).
Several values for one entry are separate records, joined by “and”; a condition that tells them apart may be missing. Equal entries are not always repeated. The campaign covered roughly 420,000 compounds. About 64,000 (15%) were called active. Inconclusive means that the source gave no clear call. Such entries were picked first, then a sample of the others. Calls come from the whole dose curve; as a rule, active = well fitted inhibition curve with a large enough effect; inconclusive = small, poorly fitted or top-dose-only effect; inactive = flat fitted curve, though single readings scatter. No potency is given beside an inconclusive call; the fits are too rough.

Assay: qHTS for Inhibitors of human tyrosyl-DNA phosphodiesterase 1 (TDP1): qHTS in cells in absence of CPT; note: nearly all actives have a fitted effect of over 55% in size
Details: DT40 Tdp1-/- hTDP1 cells, no CPT, ATP luminescence, 48 h; activity change, negative = growth inhibition: at 46.2 µM (top of the series)
Outline: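 Chicken DT40 Tdp1-/- cells complemented with human TDP1, screened without camptothecin (DMSO vehicle only), 400 cells/well. Compounds pin-transferred, cells incubated at 37 °C for at least 48 hr. Growth read as ATP-dependent luminescence (CellTiter-Glo, 30 min at RT).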
% is set by controls: 0 for no effect and ±100 for the full control effect; potency is the fitted concentration of half-maximal effect; tags give direction and shape of the fitted curve.

Row | Compound | activity change, negative = growth inhibition | Potency
1 | COc1ccc(N2C(=O)c3ccccc3NC2c2ccc(NC(C)=O)cc2)c(OC)c1 (stereo not given) | inactive: -17.7% | 
2 | COc1ccc(-n2c(C)c3c(OC)cccc(=O)c3c2C)cc1 |  | inconclusive [inhibitor, single point]
3 | CCC(=O)N1CCc2cc(S(=O)(=O)NCc3ccc(C)cc3)ccc21 |  | active: 18.4 µM
4 | CC1CCCN(C(=S)SCC(=O)c2cc(Br)cc(Br)c2O)C1 (stereo not given) |  | active: 2.91 µM
5 | CCOC(=O)c1c(NC(=O)CSc2nnc(CNc3ccc(F)cc3)o2)sc(C(C)=O)c1C | inconclusive: -30.8% [inhibitor] | 
6 | CC(=O)N(c1ccccc1)C(C(=O)c1ccccc1)c1ccccc1 (stereo not given) |  | inconclusive [inhibitor, partial curve]
7 | O=C(N/N=C/c1ccc(OC(=O)c2ccccc2Cl)cc1)c1ccc(O)cc1 |  | inconclusive [inhibitor, single point]
8 | O=C(COc1ccc2ccc(=O)oc2c1)NC1CCN(Cc2ccccc2)CC1 | inactive: -6.04% | 
9 | CC(C)(C)OC(=O)N1CCCN(C(c2cc3ccccc3o2)c2nnnn2C(C)(C)C)CC1 (stereo not given) |  | inconclusive [inhibitor, single point]
10 | CC1=CC2=C(OC1N(C)C)c1cccc3cccc(c13)C2=O (stereo not given) |  | inconclusive [inhibitor, partial curve]
11 | O=C(NCCN1CCC(n2c(=O)[nH]c3ccccc32)CC1)c1ccc(OC(F)(F)F)cc1 |  | inconclusive [inhibitor, single point]
12 | O=C(N/N=C1\C(=O)c2cccc3cccc1c23)c1ccc(O)cc1 |  | inconclusive [inhibitor, single point]
13 | COC(=O)C1CCN(C(=O)CN2C(=O)NC3(CCC(C)CC3)C2=O)CC1 (stereo not given) |  | inconclusive [inhibitor, single point]
14 | O=C(NC(C(=O)c1ccccc1)c1ccccc1)c1ccccc1 (stereo not given) | inconclusive: -30.4% [inhibitor] | 
15 | CC1=C(C(=O)N(C(C)C)C(C)C)CC(CC(=O)NCCCCc2ccccc2)C(=O)N1Cc1ccc(C(C)(C)C)cc1 (stereo not given) |  | active: 20.6 µM
16 | C=CCNC(=O)/C(C#N)=C/c1c(N2CCN(c3ccccc3)CC2)nc2c(C)cccn2c1=O |  | inconclusive [inhibitor, single point]
17 | COc1cccc(N2CC(C(=O)Nc3ccc(C(=O)OC(C)C)cc3)CC2=O)c1 (stereo not given) |  | inconclusive [inhibitor, partial curve]
18 | O=C(CSc1ccc(Cl)cc1Cl)N1CCC(c2nc3ccccc3s2)CC1 |  | inconclusive [inhibitor, single point]
19 | COc1ccc(Cl)cc1Nc1ccc2cc(S(=O)(=O)N3CCCCC3)ccc2n1 |  | inconclusive [inhibitor, single point]
20 | CCOC(=O)N1CCN(S(=O)(=O)c2ccc(C(=O)N(CCCN(C)C)c3nc4c(C)c(C)ccc4s3)cc2)CC1 |  | inconclusive [inhibitor, single point]
21 | CCOc1ccc(N2CC(C)Cn3c2nc2c3c(=O)n(Cc3c(F)cccc3Cl)c(=O)n2C)cc1 (stereo not given) |  | inconclusive [inhibitor, single point]
22 | O=C(Cn1cccc1C(=O)c1ccccc1)NCCc1ccc(Cl)cc1 | inactive: 4.73% | 
23 | O=C(Cn1cc(C(=O)c2ccco2)c2ccccc21)Nc1ccccc1 |  | active: 20.6 µM and active: 11.6 µM

Row | Compound | activity change, negative = growth inhibition | Potency
24 | Cc1c(C(=O)N2CCOCC2)[nH]c2c1C(=O)CC(c1ccccc1Cl)C2 (stereo not given) |  | active: 4.11 µM
25 | COc1ccccc1NC(=O)C1=C(C)Nc2nc3ccccc3n2C1c1ccccc1Cl (stereo not given) |  | inconclusive [inhibitor, single point]
26 | CC1CCc2nc(NC(=O)Cc3cccs3)sc2C1 (stereo not given) |  | inconclusive [inhibitor, single point]
27 | Nc1ccc(CSc2ccc(Cl)cc2)c(Cl)c1 | inactive: -37.8% | 
28 | Cc1ccc(-c2nnn3c2nc(NC2CCC(C)CC2)c2ccccc23)cc1 (stereo not given) | inconclusive: -5.04% [inhibitor] | 
29 | O=C(NCC(c1ccco1)N1CCCC1)c1ccccc1F (stereo not given) | inactive: -2.26% | 
30 | COCCNc1nc(-c2ccccc2CN(C)C)nc2ccccc12 |  | active: 11.6 µM
31 | Cc1csc(NC(=O)CSc2nc(C)nc3c2c(=O)n(C)c(=O)n3C)n1 |  | active: 20.6 µM
32 | CCCCCCC1(C)NC(c2ccc3c(c2)OCO3)=CC(c2ccccc2O)N1 (stereo not given) |  | active: 15.8 µM
33 | O=C(NCC1(O)CCCCC1)C1CCC(=O)N(CCc2ccccc2)C1 (stereo not given) | inactive: 7.95% | 
34 | CCCCc1cc(C(=O)Cc2ccccn2)c(O)cc1O |  | inconclusive [inhibitor, single point]
35 | O=C(CSc1ncc(-c2ccccc2)[nH]1)Nc1cccc(Br)c1 |  | inconclusive [inhibitor, single point]
36 | COc1cccc(CC2(CO)CCCN(Cc3ccc(-c4ccco4)cc3)C2)c1 (stereo not given) |  | active: 20.6 µM
37 | CC(=O)c1cccc(NC(=O)CN2CCN(Cc3ccccc3)CC2)c1 | inactive: -22.9% | 
38 | CC1CN(C(=O)c2cccc(NS(=O)(=O)c3ccc(Br)cc3)c2)CC(C)O1 (stereo not given) |  | inconclusive [inhibitor, single point]
39 | CCOCCc1nnc(NC(=O)C(=O)c2cc(C)n(-c3ccc(Cl)cc3)c2C)s1 |  | inconclusive [inhibitor, partial curve]
40 | Cc1cc([N+](=O)[O-])ccc1NC(=O)c1csc(C)c1C |  | inconclusive [inhibitor, single point]
41 | COc1cc(-c2cc(NC=O)c3ncc(-c4ccccc4)n3c2)cc(OC)c1OC |  | inconclusive [inhibitor, partial curve, poor fit]
42 | O=C(Nc1nc2c(s1)CN(Cc1ccccc1)CC2)C1CCCC1 |  | inconclusive [inhibitor, single point]
43 | CS(=O)(=O)N1CCC2(CCCN(C(=O)Nc3cccc(F)c3)C2)CC1 | inactive: -0.546% | 
44 | Cc1cc2n(n1)CCCN2C(=O)Nc1ccc(F)c(Cl)c1 | inactive: -3.04% | 
45 | COc1ccc(CC(=O)Nc2nc(-c3cc(OC)ccc3OC)cs2)cc1 |  | inconclusive [inhibitor, single point]
